B1: Caulobacter ParB omega fusion; a variant is named by its letters at X, in order, B8GW30 (parent)
chain: MESVVVGEPGMSEGRRGLGRGLSALLGEVDAAPAQAPGEQLGGSREAPIEILQRNPDQPRRTFREEDLEDLSNSIREKGVLQPILVRPSPDTAGEYQIVAGERAWRAAQRAGLKTVPIMVRELDDLAVLEIGIIENVQRADLNVLEEALSYKVLMEKFERTQENIAQTIGKSXSHVANXMRLLXLPDEVQSYLVSGELTAXHARAIAAAADPVALAKQIIEGGLSVRETEALARKAPNLSAGKSKGGRPPRVKDTDTQALESDLSSVLGLDVSIDHRGSTGTLTITYATLEQLDDLCNRLTRGI

In all, about 81,000 sequences were measured (“one-hybrid fitness for binding parS DNA”: median about -0.17, highest 2% from about 0.51 on). Some of the results follow. Some results are limits rather than exact numbers.

The variants in the assay derive from B1. In words: one-hybrid fitness for binding parS DNA (scaled: cognate 1, non-cognate 0); higher = stronger binding. Conditions: with parS DNA site. Put shortly: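 Values were rescaled so that cognate is 1 and non-cognate is 0. Each is a fitness, the log change in a variant's read ratio to wild type from Illumina reads of plasmids before and after selection, with three replicate libraries pooled and variants under 10 reads dropped. Selection of the Caulobacter ParB libraries, four specificity codons randomised, used E. coli USO with a HIS3 reporter, site 19 bp from the promoter, on M9-minus-histidine with 0.1 mM IPTG and 5 mM 3-AT for 48 hours at 37°C.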
With GRIS, the “one-hybrid fitness for binding parS DNA” value was no more than 0.2.
The value for TVLI was no more than 0.2; that for LTHE was no more than 0.2; that for ARHI was no more than 0.2.
Regarding YPKN, the “one-hybrid fitness for binding parS DNA” value was no more than 0.2.
The value for SYAC was no more than 0.2.
The value for DRSR was no more than 0.2; that for GLPR was no more than 0.2; that for GLVD was no more than 0.2.
For QLST the value was no more than 0.2.
For LGPV, the “one-hybrid fitness for binding parS DNA” value was no more than 0.2.
VILT: the “one-hybrid fitness for binding parS DNA” value is no more than 0.2.
For RYGT the value was 0.853; for NWMS, no more than 0.2.
For LHCQ the value was no more than 0.2; for HAAV, no more than 0.2.
The value for HSNR was no more than 0.2; that for NVVC was no more than 0.2; that for NRVR was no more than 0.2.
On to AMVC, for which the “one-hybrid fitness for binding parS DNA” value was no more than 0.2.
The value for SMPF was no more than 0.2; that for RSPL was no more than 0.2.
As to GSFR, the “one-hybrid fitness for binding parS DNA” value was no more than 0.2.
The value for TKES was no more than 0.2; that for IRGY was no more than 0.2; that for SDWS was no more than 0.2.
For RPHP the value was no more than 0.2; for DYII, no more than 0.2; for SFGA, no more than 0.2.
For LMQW the value was no more than 0.2.
YCHN: the “one-hybrid fitness for binding parS DNA” value was no more than 0.2.
As for EAVW, the “one-hybrid fitness for binding parS DNA” value is no more than 0.2.
For HEHT the value was no more than 0.2; for PWVR, no more than 0.2; for WQKT, no more than 0.2.
The value for LENL was no more than 0.2; that for TNLE was no more than 0.2.
The value for DVFG was no more than 0.2; that for GKMR was no more than 0.2; that for QGYS was no more than 0.2.
Consider IDLD, for which the “one-hybrid fitness for binding parS DNA” value is no more than 0.2.
The value for CLYC was no more than 0.2; that for LEML was no more than 0.2; that for GPDC was no more than 0.2.
For FCYR the value was no more than 0.2.
Turning to YMER, the “one-hybrid fitness for binding parS DNA” value is no more than 0.2.
For RNAP the value was no more than 0.2; for QCKA, no more than 0.2.
With QVSD, the “one-hybrid fitness for binding parS DNA” value is no more than 0.2.
Consider TCCD, for which the “one-hybrid fitness for binding parS DNA” value was no more than 0.2.
The value for TTQM was no more than 0.2; that for TASA was no more than 0.2.
For LVTR the value was no more than 0.2; for GPVG, no more than 0.2.
As to YSDF, the “one-hybrid fitness for binding parS DNA” value was no more than 0.2.
The value for SDWD was no more than 0.2; that for TRVL was no more than 0.2.
For DQVG the value was no more than 0.2; for CSLG, no more than 0.2; for WRQR, no more than 0.2.
For the variant LRGI, the “one-hybrid fitness for binding parS DNA” value is no more than 0.2.
As for DFMT, the “one-hybrid fitness for binding parS DNA” value was no more than 0.2.
The value for LIAF was no more than 0.2; that for TGTF was no more than 0.2.
Take QYPC: the “one-hybrid fitness for binding parS DNA” value is no more than 0.2.
For WLTL the value was no more than 0.2; for RPVC, no more than 0.2.
The value for RWRN was 0.401; that for HCKT was no more than 0.2; that for PCCD was no more than 0.2.
For HCNG the value was no more than 0.2; for DHAR, no more than 0.2; for THIG, no more than 0.2.
Take VLWF: the “one-hybrid fitness for binding parS DNA” value was no more than 0.2.
With RKIP, the “one-hybrid fitness for binding parS DNA” value is no more than 0.2.
The value for THKW was no more than 0.2; that for SCMY was no more than 0.2.

Values taken from a collection of fitness landscapes (doi:10.1016/j.celrep.2020.107928).
